What all share (assay): Viability of human cancer cell lines after 72 h of drug (GDSC screen)
Compound in one test: Cc1cccc(Nc2nc(-c3ccncc3)cs2)c1 [STF-62247]
The note with it: top dose 10.24 µM; top dose inferred. The method, then:
(§1)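 Human cancer cell lines in 384-well plates, medium with 10% serum, drug for 72 h over a 256-fold dose range (nine 2-fold or five 4-fold steps up to the top dose). Adherent lines were fixed and stained with the nucleic acid dye Syto60, suspension lines read with resazurin; signal relative to control wells, capped at 0 and 100%. One two-parameter sigmoid per drug and line, fitted in a mixed model over all curves with the slope shared within a line.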

Compound in a further test: COC1=CC(c2cc3ccccc3[nH]2)=N/C1=C\c1[nH]c(C)cc1C [Obatoclax mesylate]
The note with it: top dose 16 µM. On the procedure:
as §1

Compound in another test: CC(C)C[C@H](NC(=O)[C@H](Cc1ccccc1)NC(=O)c1cnccn1)B(O)O [Bortezomib]
The note with it: top dose 0.02 µM. On the procedure: as §1

Compound in the next test: Cc1cnc(CNC(=O)c2c(=O)c3ccc(N4CCCN(C)CC4)nc3n3c2sc2ccccc23)cn1 [CX-5461]
The note with it: top dose 10.24 µM; top dose inferred. The method, then:
as §1

Compound in the next test: CC(=O)O[C@H]1C(=O)[C@@]2(C)[C@H]([C@H](OC(=O)c3ccccc3)[C@]3(O)C[C@H](OC(=O)[C@H](O)[C@@H](NC(=O)c4ccccc4)c4ccccc4)C(C)=C1C3(C)C)[C@]1(OC(C)=O)CO[C@@H]1C[C@@H]2O [Paclitaxel]
The following applies: top dose 0.1024 µM. On the procedure: as §1

Compound in the next test: COCC(=O)NC/C=C/c1ccc2ncnc(Nc3ccc(Oc4ccc(C)nc4)c(C)c3)c2c1 [CP724714]
The following applies: top dose 10.24 µM; top dose inferred. The method, then: as §1

pIC50: −log10 of the molar value. A lower IC50 marks a more sensitive line; where the fit passes the top or lowest dose, that dose stands as a limit. The AUC spans the tested range (256-fold, ending at the top dose) of the same fit: 1 means no effect, lower means more sensitive. For part of these data: Where the top dose is marked as inferred, it comes from the curve model; the source does not state it.

One may read the pIC50 as the negative decadic logarithm of the IC50, by convention in mol/L.

As for “NCI-H524 (small cell lung carcinoma, suspension)”, the AUC with STF-62247 came to 0.987; with Obatoclax mesylate, 0.828; in the test with Bortezomib, 0.829; in the test with CX-5461 it was 0.99; in the test with Paclitaxel, 0.564; with CP724714, 0.986. Further, the pIC50 is under 4.99 with STF-62247; 5.07 with Obatoclax mesylate; 7.97 with Bortezomib; under 4.99 with CX-5461; 8.03 with Paclitaxel; under 4.99 with CP724714.
Consider NCI-H716 (large intestine, suspension), for which the AUC with STF-62247 turned out to be 0.947; in the test with Obatoclax mesylate, 0.589; with Bortezomib, 0.906; in the test with CX-5461, 0.891; with Paclitaxel it was 0.979; with CP724714, 0.975. Besides, the negative logarithm of the IC50 (pIC50) in the test with STF-62247 is under 4.99; with Obatoclax mesylate, 5.73; in the test with Bortezomib, under 7.70; with CX-5461 it was under 4.99; with Paclitaxel it was under 6.99; with CP724714 it was under 4.99.
For NCI-H720 (lung carcinoid, suspension), the AUC with STF-62247 was 0.979; in the test with Obatoclax mesylate, 0.842; in the test with Bortezomib it was 0.808; with CX-5461 it was 0.992; with Paclitaxel, 0.981; with CP724714 it was 0.992. Further, the negative-log IC50 (pIC50) is under 4.99 with STF-62247; 5.00 in the test with Obatoclax mesylate; 8.03 with Bortezomib; under 4.99 with CX-5461; under 6.99 in the test with Paclitaxel; under 4.99 with CP724714.
Take NCI-H747 (large intestine, adherent): the AUC is 0.911 in the test with STF-62247; 0.262 with Obatoclax mesylate; 0.361 in the test with Bortezomib; 0.944 with CX-5461; 0.653 with Paclitaxel; 0.924 with CP724714. The negative-log IC50 (pIC50) with STF-62247 was under 4.99; with Obatoclax mesylate it was 6.75; with Bortezomib, 9.32; with CX-5461 it was under 4.99; with Paclitaxel, 7.73; with CP724714 it was under 4.99.
Consider “NCI-H748 (small cell lung carcinoma, suspension)”, for which the AUC with STF-62247 was determined as 0.973; with Obatoclax mesylate, 0.773; with Bortezomib it was 0.628; with CX-5461 it was 0.792; in the test with Paclitaxel it was 0.792; in the test with CP724714, 0.98. Besides, the negative logarithm of the IC50 (pIC50) with STF-62247 is under 4.99; with Obatoclax mesylate, 5.10; in the test with Bortezomib it was 8.51; with CX-5461, 5.21; in the test with Paclitaxel, 7.21; with CP724714, under 4.99.
With “NCI-H847 (small cell lung carcinoma, adherent)”, the AUC with STF-62247 was determined as 0.993; with Obatoclax mesylate, 0.491; with Bortezomib, 0.586; with CX-5461, 0.555; in the test with Paclitaxel, 0.54; with CP724714, 0.981. In addition, the pIC50 was under 4.99 in the test with STF-62247; 6.02 in the test with Obatoclax mesylate; 8.69 with Bortezomib; 6.06 with CX-5461; 8.09 with Paclitaxel; under 4.99 with CP724714.
“NCI-H1092 (small cell lung carcinoma, suspension)”: the AUC in the test with STF-62247 stood at 0.99; with Obatoclax mesylate, 0.634; with Bortezomib it was 0.575; with CX-5461, 0.943; with Paclitaxel it was 0.946; with CP724714, 0.979. Also, the negative logarithm of the IC50 (pIC50) in the test with STF-62247 was under 4.99; in the test with Obatoclax mesylate it was 5.63; with Bortezomib, 8.70; in the test with CX-5461, under 4.99; with Paclitaxel, under 6.99; in the test with CP724714 it was under 4.99.
As to “NCI-H1155 (large cell lung carcinoma, suspension)”, the AUC is 0.99 with STF-62247; 0.753 with Obatoclax mesylate; 0.875 in the test with Bortezomib; 0.883 in the test with CX-5461; 0.935 in the test with Paclitaxel; 0.99 with CP724714. The negative logarithm of the IC50 (pIC50) in the test with STF-62247 is under 4.99; with Obatoclax mesylate, 5.34; with Bortezomib, 7.86; with CX-5461 it was 5.12; with Paclitaxel, under 6.99; with CP724714 it was under 4.99.
Turning to “NCI-H1304 (small cell lung carcinoma, suspension)”, the AUC in the test with STF-62247 was 0.987; with Obatoclax mesylate, 0.592; with Bortezomib, 0.816; with CX-5461, 0.987; with Paclitaxel, 0.816; with CP724714, 0.988. Further, the negative-log IC50 (pIC50) with STF-62247 is under 4.99; with Obatoclax mesylate, 5.74; with Bortezomib, 7.91; in the test with CX-5461, under 4.99; in the test with Paclitaxel it was 7.20; with CP724714 it was under 4.99.
For “NCI-H1355 (lung adenocarcinoma, adherent)”, the AUC in the test with STF-62247 is 0.976; in the test with Obatoclax mesylate, 0.262; in the test with Bortezomib, 0.447; with CX-5461, 0.978; in the test with Paclitaxel it was 0.551; in the test with CP724714, 0.966. Further, the pIC50 was under 4.99 in the test with STF-62247; 6.82 with Obatoclax mesylate; 9.08 with Bortezomib; under 4.99 in the test with CX-5461; 8.03 with Paclitaxel; under 4.99 in the test with CP724714.

These data come from the supplement of paper PMC4967469.
